Source: the supplement of paper PMC12645437, “Orthogonal IMiD-Degron Pairs Induce Selective Protein Degradation in Cells” (ACS Chemical Biology, 2025)
The list shows a part of the results.

B1: Q9UKT9 (peptide)
chain: FLCNQCGASFTQKGNLLRHIKL
B2: Q9UKT9 (peptide)
chain: LCCNQCGFQCTQKGNLLRHIKL
B3: Q9UKT9 (peptide)
chain: FDCNQCGHMFTQKGNLLRHIKL
B4: Q9UKT9 (peptide)
chain: FMCNQCGAMFTQKGNLLRHIKL
B5: Q9UKT9 (peptide)
chain: LHCPICGFTCTQKGNLLRHIKL
B6: Q9UKT9 (peptide)
chain: FECNQCGHKFTQKGNLLRHIKL
B7: Q9UKT9 (peptide)
chain: LCCEICGFVCTQKGNLLRHIKL
B8: Q9UKT9 (peptide)
chain: FLCNQCGRNFTQKGNLLRHIKL
B9: Q9UKT9 (peptide)
chain: FECPICGHRFTQKGNLLRHIKL
B10: Q9UKT9 (peptide)
chain: FHCNICGAHFTQKGNLLRHIKL
B11: Q9UKT9 (peptide)
chain: FICPICGRLFTQKGNLLRHIKL
B12: Q9UKT9 (peptide)
chain: FACEICGHYFTQKGNLLRHIKL
B13: Q9UKT9 (peptide)
chain: FRCPICGHEFTQKGNLLRHIKL
B14: Q9UKT9 (peptide)
chain: FNCEVCGAHFTQKGNLLRHIKL
B15: Q9UKT9 (peptide)
chain: FECNICGAIFTQKGNLLRHIKL
B16: Q9UKT9 (peptide)
chain: FQCDQCGALFTQKGNLLRHIKL
B17: Q9UKT9 (peptide)
chain: FCCEICGAWFTQKGNLLRHIKL
B18: Q9UKT9 (peptide)
chain: FNCEICGHCFTQKGNLLRHIKL
B19: Q9UKT9 (peptide)
chain: FHCNQCGHEFTQKGNLLRHIKL
B20: Q9UKT9 (peptide)
chain: FACNVCGAQFTQKGNLLRHIKL
B21: Q9UKT9 (peptide)
chain: FDCNQCGRGFTQKGNLLRHIKL
B22: Q9UKT9 (peptide)
chain: FMCPICGAIFTQKGNLLRHIKL
B23: Q9UKT9 (peptide)
chain: FMCNQCGHQFTQKGNLLRHIKL
B24: Q9UKT9 (peptide)
chain: LNCNQCGFWCTQKGNLLRHIKL
B25: Q9UKT9 (peptide)
chain: FDCPICGATFTQKGNLLRHIKL
B26: Q9UKT9 (peptide)
chain: FACNQCGREFTQKGNLLRHIKL
B27: Q9UKT9 (peptide)
chain: FRCNICGANFTQKGNLLRHIKL
B28: Q9UKT9 (peptide)
chain: FFCEICGALFTQKGNLLRHIKL
B29: Q9UKT9 (peptide)
chain: FCCEICGAKFTQKGNLLRHIKL
B30: Q9UKT9 (peptide)
chain: FFCNVCGATFTQKGNLLRHIKL
B31: Q9UKT9 (peptide)
chain: LLCPICGFACTQKGNLLRHIKL
B32: Q9UKT9 (peptide)
chain: FRCPQCGAGFTQKGNLLRHIKL
B33: Q9UKT9 (peptide)
chain: LMCPICGFYCTQKGNLLRHIKL
B34: Q9UKT9 (peptide)
chain: FCCEQCGAYFTQKGNLLRHIKL
B35: Q9UKT9 (peptide)
chain: FNCNQCGANFTQKGNLLRHIKL
B36: Q9UKT9 (peptide)
chain: FNCNQCGRVFTQKGNLLRHIKL
B37: Q9UKT9 (peptide)
chain: FYCEICGHQFTQKGNLLRHIKL
B38: Q9UKT9 (peptide)
chain: FDCEVCGASFTQKGNLLRHIKL
B39: Q9UKT9 (peptide)
chain: FCCEQCGAVFTQKGNLLRHIKL
B40: Q9UKT9 (peptide)
chain: FACSVCGHKFTQKGNLLRHIKL
B41: Q9UKT9 (peptide)
chain: LKCEICGFLCTQKGNLLRHIKL
B42: Q9UKT9 (peptide)
chain: FCCEVCGAWFTQKGNLLRHIKL
B43: Q9UKT9 (peptide)
chain: FWCDICGAPFTQKGNLLRHIKL
B44: Q9UKT9 (peptide)
chain: FICEICGHVFTQKGNLLRHIKL
B45: Q9UKT9 (peptide)
chain: FCCEQCGANFTQKGNLLRHIKL
B46: Q9UKT9 (peptide)
chain: FACPICGAFFTQKGNLLRHIKL
B47: Q9UKT9 (peptide)
chain: FWCDICGAHFTQKGNLLRHIKL
B48: Q9UKT9 (peptide)
chain: LHCEICGFHCTQKGNLLRHIKL
B49: Q9UKT9 (peptide)
chain: FGCNICGAMFTQKGNLLRHIKL
B50: Q9UKT9 (peptide)
chain: FACSVCGHNFTQKGNLLRHIKL

biological target: no compound (DMSO); experiment: log2 fold change of degron read counts, EGFP-low vs EGFP+ sorted cells; higher = lower degron-EGFP level without compound (poor expression or instability); details: compound: DMSO control; 18 h
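Further: jurkat cells carrying a lentiviral library of mutant zinc finger degrons fused to EGFP plus mCherry, mCherry+ cells FACS sorted, degron abundance counted by next-generation sequencing.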

Sequence	log2 fold change of degron read counts
B1	-1.09
B2	-0.259
B3	0.661
B4	-0.182
B5	0.474
B6	-3.29
B7	-0.105
B8	-0.135
B9	-0.729
B10	-0.298
B11	0.601
B12	-1.33
B13	-0.226
B14	-1.13
B15	-1.66
B16	-1.66
B17	-0.686
B18	-0.88
B19	-1.25
B20	-1.52
B21	0.621
B22	0.653
B23	-0.324
B24	2.12
B25	-0.991

Sequence	log2 fold change of degron read counts
B26	-1.97
B27	0.131
B28	0.354
B29	-1.93
B30	-0.209
B31	1.02
B32	-0.578
B33	1.63
B34	-1.7
B35	-0.713
B36	0.425
B37	-0.756
B38	-2.46
B39	-1.52
B40	-1.12
B41	0.0424
B42	-1.27
B43	0.384
B44	-1.98
B45	-3.27
B46	0.578
B47	-0.306
B48	0.211
B49	0.213
B50	-0.767
